T1: RBFOX1 RRM RbFoxmut (Fox-RRM*) (Homo sapiens, UniProt Q9NWB1 109-208, R118D;E147R;N151S;E152T)
T1 sequence: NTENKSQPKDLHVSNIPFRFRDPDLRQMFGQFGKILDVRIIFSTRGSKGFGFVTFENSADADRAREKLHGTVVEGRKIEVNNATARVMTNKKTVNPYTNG

B1: CUAGGUG (DNA:RNA)
RNA: GGGAGACCGGAAUUCAGAUUGUCCCUAGGUGUUAAAUCCCGUCGUAGCCACCA
DNA 1: CAATCTGAATTCCGGTCTCCC
DNA 2: TGGTGGCTACGACGGGATT
B2: UCUGGCU (DNA:RNA)
RNA: B1 RNA with C25U, U26C, A27U, U30C, G31U
DNA 1: CAATCTGAATTCCGGTCTCCC
DNA 2: TGGTGGCTACGACGGGATT
B3: CGGUCCU (DNA:RNA)
RNA: B1 RNA with U26G, A27G, G28U, G29C, U30C, G31U
DNA 1: CAATCTGAATTCCGGTCTCCC
DNA 2: TGGTGGCTACGACGGGATT
B4: AACCUAG (DNA:RNA)
RNA: B1 RNA with C25A, U26A, A27C, G28C, G29U, U30A
DNA 1: CAATCTGAATTCCGGTCTCCC
DNA 2: TGGTGGCTACGACGGGATT
B5: UGGUUUA (DNA:RNA)
RNA: B1 RNA with C25U, U26G, A27G, G28U, G29U, G31A
DNA 1: CAATCTGAATTCCGGTCTCCC
DNA 2: TGGTGGCTACGACGGGATT
B6: CCCCUCA (DNA:RNA)
RNA: B1 RNA with U26C, A27C, G28C, G29U, U30C, G31A
DNA 1: CAATCTGAATTCCGGTCTCCC
DNA 2: TGGTGGCTACGACGGGATT
B7: CUCAGCA (DNA:RNA)
RNA: B1 RNA with A27C, G28A, U30C, G31A
DNA 1: CAATCTGAATTCCGGTCTCCC
DNA 2: TGGTGGCTACGACGGGATT
B8: GAUACUG (DNA:RNA)
RNA: B1 RNA with C25G, U26A, A27U, G28A, G29C
DNA 1: CAATCTGAATTCCGGTCTCCC
DNA 2: TGGTGGCTACGACGGGATT
B9: CCAAAGC (DNA:RNA)
RNA: B1 RNA with U26C, G28A, G29A, U30G, G31C
DNA 1: CAATCTGAATTCCGGTCTCCC
DNA 2: TGGTGGCTACGACGGGATT
B10: UGGCCCG (DNA:RNA)
RNA: B1 RNA with C25U, U26G, A27G, G28C, G29C, U30C
DNA 1: CAATCTGAATTCCGGTCTCCC
DNA 2: TGGTGGCTACGACGGGATT
B11: GCGCCGC (DNA:RNA)
RNA: GGGAGACCGGAAUUCAGAUUGUCCGCGCCGCUUAAAUCCCGUCGUAGCCACCA
DNA 1: CAATCTGAATTCCGGTCTCCC
DNA 2: TGGTGGCTACGACGGGATT
B12: GAUGCUC (DNA:RNA)
RNA: B11 RNA with C26A, G27U, C28G, G30U
DNA 1: CAATCTGAATTCCGGTCTCCC
DNA 2: TGGTGGCTACGACGGGATT
B13: CAAAGUA (DNA:RNA)
RNA: B1 RNA with U26A, G28A, G31A
DNA 1: CAATCTGAATTCCGGTCTCCC
DNA 2: TGGTGGCTACGACGGGATT
B14: GUGGCCG (DNA:RNA)
RNA: B1 RNA with C25G, A27G, G29C, U30C
DNA 1: CAATCTGAATTCCGGTCTCCC
DNA 2: TGGTGGCTACGACGGGATT
B15: GGAGCAG (DNA:RNA)
RNA: B1 RNA with C25G, U26G, G29C, U30A
DNA 1: CAATCTGAATTCCGGTCTCCC
DNA 2: TGGTGGCTACGACGGGATT
B16: CGAAUAA (DNA:RNA)
RNA: B1 RNA with U26G, G28A, G29U, U30A, G31A
DNA 1: CAATCTGAATTCCGGTCTCCC
DNA 2: TGGTGGCTACGACGGGATT
B17: GUGCUUG (DNA:RNA)
RNA: B1 RNA with C25G, A27G, G28C, G29U
DNA 1: CAATCTGAATTCCGGTCTCCC
DNA 2: TGGTGGCTACGACGGGATT
B18: AUGUGGG (DNA:RNA)
RNA: B1 RNA with C25A, A27G, G28U, U30G
DNA 1: CAATCTGAATTCCGGTCTCCC
DNA 2: TGGTGGCTACGACGGGATT
B19: GUAGGUG (DNA:RNA)
RNA: B1 RNA with C25G
DNA 1: CAATCTGAATTCCGGTCTCCC
DNA 2: TGGTGGCTACGACGGGATT
B20: UUUGAGU (DNA:RNA)
RNA: B1 RNA with C25U, A27U, G29A, U30G, G31U
DNA 1: CAATCTGAATTCCGGTCTCCC
DNA 2: TGGTGGCTACGACGGGATT
B21: CGGAUCU (DNA:RNA)
RNA: B1 RNA with U26G, A27G, G28A, G29U, U30C, G31U
DNA 1: CAATCTGAATTCCGGTCTCCC
DNA 2: TGGTGGCTACGACGGGATT
B22: UAGCUCU (DNA:RNA)
RNA: B11 RNA with G25U, C26A, C29U, G30C, C31U
DNA 1: CAATCTGAATTCCGGTCTCCC
DNA 2: TGGTGGCTACGACGGGATT
B23: CCAUUCG (DNA:RNA)
RNA: B1 RNA with U26C, G28U, G29U, U30C
DNA 1: CAATCTGAATTCCGGTCTCCC
DNA 2: TGGTGGCTACGACGGGATT
B24: ACUGCGU (DNA:RNA)
RNA: B11 RNA with G25A, G27U, C28G, C31U
DNA 1: CAATCTGAATTCCGGTCTCCC
DNA 2: TGGTGGCTACGACGGGATT
B25: UGAUAUG (DNA:RNA)
RNA: B1 RNA with C25U, U26G, G28U, G29A
DNA 1: CAATCTGAATTCCGGTCTCCC
DNA 2: TGGTGGCTACGACGGGATT
B26: CGUUACC (DNA:RNA)
RNA: B1 RNA with U26G, A27U, G28U, G29A, U30C, G31C
DNA 1: CAATCTGAATTCCGGTCTCCC
DNA 2: TGGTGGCTACGACGGGATT
B27: GGCCGCA (DNA:RNA)
RNA: B11 RNA with C26G, G27C, C29G, G30C, C31A
DNA 1: CAATCTGAATTCCGGTCTCCC
DNA 2: TGGTGGCTACGACGGGATT
B28: UUACUUC (DNA:RNA)
RNA: B1 RNA with C25U, G28C, G29U, G31C
DNA 1: CAATCTGAATTCCGGTCTCCC
DNA 2: TGGTGGCTACGACGGGATT
B29: UGUGAGC (DNA:RNA)
RNA: B11 RNA with G25U, C26G, G27U, C28G, C29A
DNA 1: CAATCTGAATTCCGGTCTCCC
DNA 2: TGGTGGCTACGACGGGATT
B30: AGACGGU (DNA:RNA)
RNA: B1 RNA with C25A, U26G, G28C, U30G, G31U
DNA 1: CAATCTGAATTCCGGTCTCCC
DNA 2: TGGTGGCTACGACGGGATT
B31: GGUUACC (DNA:RNA)
RNA: B11 RNA with C26G, G27U, C28U, C29A, G30C
DNA 1: CAATCTGAATTCCGGTCTCCC
DNA 2: TGGTGGCTACGACGGGATT

We go through 31 molecules from article PMC9911399, “Two distinct binding modes provide the RNA-binding protein RbFox with extraordinary sequence specificity”.

Positions count from the first letter of the chain named. The list shows a part of the results.

For this assay, the target named is T1, RBFOX1 RRM RbFoxmut (Fox-RRM*). Description: EMSA; HiTS-Eq, 1 nM pool, 10 min; buffer printed only for the single-RNA assays: 10 mM Tris pH 7.5, 150 mM NaCl, 3.4 mM EDTA, 0.001% NP-40, 30 C. The conditions noted are these: tags: His6 N-terminal (pET28a); label: 5' 32P. In outline:
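Purified RbFox RRM (wild type or mutant) was equilibrated for 10 min in 50 µL with 1 nM of a 5′-radiolabelled pool of RNA with 7 randomized nucleotides, its flanks annealed to DNA oligonucleotides, across increasing protein concentrations. Free RNA was separated by 8% native PAGE, excised, reverse-transcribed, PCR-barcoded and sequenced on an Illumina HiSeq 2500. Relative association constants came from read-count changes of each variant against the control reaction, normalised to the cognate motif.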
A general note: A gel shift assay detects complexes by their altered migration in electrophoresis.
In the case of B1, the binding signal was 0.12 KA relative to UGCAUGU.

As to B2, the binding signal is 0.0857 KA relative to UGCAUGU.

Consider B3, for which the binding signal was 0.0605 KA relative to UGCAUGU.

Consider B4, for which the binding signal is 0.0762 KA relative to UGCAUGU.

On to B5, for which the binding signal is 0.107 KA relative to UGCAUGU.

On to B6, for which the binding signal was 0.0989 KA relative to UGCAUGU.

Take B7: the binding signal was 0.149 KA relative to UGCAUGU.

In the case of B8, the binding signal was 0.116 KA relative to UGCAUGU.

In the case of B9, the binding signal is 0.0865 KA relative to UGCAUGU.

As to B10, the binding signal is 0.152 KA relative to UGCAUGU.

For B11, the binding signal was 0.0958 KA relative to UGCAUGU.

On to B12, for which the binding signal is 0.0632 KA relative to UGCAUGU.

In the case of B13, the binding signal was 0.109 KA relative to UGCAUGU.

Take B14: the binding signal is 0.202 KA relative to UGCAUGU.

With B15, the binding signal is 0.0829 KA relative to UGCAUGU.

Consider B16, for which the binding signal was 0.0787 KA relative to UGCAUGU.

Take B17: the binding signal is 0.511 KA relative to UGCAUGU.

On to B18, for which the binding signal is 0.134 KA relative to UGCAUGU.

Turning to B19, the binding signal is 0.157 KA relative to UGCAUGU.

On to B20, for which the binding signal was 0.121 KA relative to UGCAUGU.

Consider B21, for which the binding signal was 0.099 KA relative to UGCAUGU.

As for B22, the binding signal is 0.0833 KA relative to UGCAUGU.

Consider B23, for which the binding signal is 0.104 KA relative to UGCAUGU.

Take B24: the binding signal was 0.122 KA relative to UGCAUGU.

With B25, the binding signal is 0.437 KA relative to UGCAUGU.

For the molecule B26, the binding signal is 0.0897 KA relative to UGCAUGU.

With B27, the binding signal was 0.107 KA relative to UGCAUGU.

As to B28, the binding signal is 0.0594 KA relative to UGCAUGU.

As for B29, the binding signal is 0.128 KA relative to UGCAUGU.

Consider B30, for which the binding signal was 0.093 KA relative to UGCAUGU.

For the molecule B31, the binding signal is 0.107 KA relative to UGCAUGU.
